Targets with the largest changes are over-represented here; the source holds about 21,000 in all.
Compound: Cc1cc(ccc1-c1ccccc1)C(=O)N1CCCN(CC1)C(=O)CCl [compound 10]
Test: probe-labelled cysteine peptide fold change vs DMSO (competition) (log2 fold change); higher = less target engagement (more negative = stronger competition)
Details: THP-1, incubation time: 4 h
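Further: competitive profiling in live THP-1 cells: cysteine peptides tagged with an iodoacetamide desthiobiotin (IA-DTB) probe, intensity after compound treatment relative to DMSO-treated cells.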

Chain of UniProt O43683 (O43683 whole entry, looked up): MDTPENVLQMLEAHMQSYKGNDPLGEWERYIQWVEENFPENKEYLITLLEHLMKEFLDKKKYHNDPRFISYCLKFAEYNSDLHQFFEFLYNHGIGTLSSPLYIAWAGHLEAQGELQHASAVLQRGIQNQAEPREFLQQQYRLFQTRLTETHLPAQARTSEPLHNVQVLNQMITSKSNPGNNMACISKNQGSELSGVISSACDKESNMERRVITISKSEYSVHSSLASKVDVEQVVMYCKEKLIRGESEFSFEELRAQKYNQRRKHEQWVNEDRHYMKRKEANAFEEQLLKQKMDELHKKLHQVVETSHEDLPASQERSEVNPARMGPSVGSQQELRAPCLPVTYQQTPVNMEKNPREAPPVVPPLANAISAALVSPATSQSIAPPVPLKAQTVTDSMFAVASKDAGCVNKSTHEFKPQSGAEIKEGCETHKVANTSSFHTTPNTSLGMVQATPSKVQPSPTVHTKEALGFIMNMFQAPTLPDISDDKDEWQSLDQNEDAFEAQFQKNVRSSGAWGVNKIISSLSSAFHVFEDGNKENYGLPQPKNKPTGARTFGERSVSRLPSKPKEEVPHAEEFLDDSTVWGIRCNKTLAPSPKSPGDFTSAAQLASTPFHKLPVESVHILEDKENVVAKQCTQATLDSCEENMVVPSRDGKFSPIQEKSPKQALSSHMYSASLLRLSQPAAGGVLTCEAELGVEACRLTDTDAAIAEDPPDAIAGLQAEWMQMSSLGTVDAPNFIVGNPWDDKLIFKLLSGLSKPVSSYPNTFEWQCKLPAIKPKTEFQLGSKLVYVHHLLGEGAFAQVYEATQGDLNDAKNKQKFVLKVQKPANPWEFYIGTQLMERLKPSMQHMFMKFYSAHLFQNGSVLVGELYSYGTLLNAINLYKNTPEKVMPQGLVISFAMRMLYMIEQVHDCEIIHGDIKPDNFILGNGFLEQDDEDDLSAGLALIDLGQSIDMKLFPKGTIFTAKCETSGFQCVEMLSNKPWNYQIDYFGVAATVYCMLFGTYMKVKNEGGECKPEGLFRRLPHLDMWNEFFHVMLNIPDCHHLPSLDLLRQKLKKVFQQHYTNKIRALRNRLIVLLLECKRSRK
Chain of UniProt Q9UIG0 (Q9UIG0 whole entry, looked up): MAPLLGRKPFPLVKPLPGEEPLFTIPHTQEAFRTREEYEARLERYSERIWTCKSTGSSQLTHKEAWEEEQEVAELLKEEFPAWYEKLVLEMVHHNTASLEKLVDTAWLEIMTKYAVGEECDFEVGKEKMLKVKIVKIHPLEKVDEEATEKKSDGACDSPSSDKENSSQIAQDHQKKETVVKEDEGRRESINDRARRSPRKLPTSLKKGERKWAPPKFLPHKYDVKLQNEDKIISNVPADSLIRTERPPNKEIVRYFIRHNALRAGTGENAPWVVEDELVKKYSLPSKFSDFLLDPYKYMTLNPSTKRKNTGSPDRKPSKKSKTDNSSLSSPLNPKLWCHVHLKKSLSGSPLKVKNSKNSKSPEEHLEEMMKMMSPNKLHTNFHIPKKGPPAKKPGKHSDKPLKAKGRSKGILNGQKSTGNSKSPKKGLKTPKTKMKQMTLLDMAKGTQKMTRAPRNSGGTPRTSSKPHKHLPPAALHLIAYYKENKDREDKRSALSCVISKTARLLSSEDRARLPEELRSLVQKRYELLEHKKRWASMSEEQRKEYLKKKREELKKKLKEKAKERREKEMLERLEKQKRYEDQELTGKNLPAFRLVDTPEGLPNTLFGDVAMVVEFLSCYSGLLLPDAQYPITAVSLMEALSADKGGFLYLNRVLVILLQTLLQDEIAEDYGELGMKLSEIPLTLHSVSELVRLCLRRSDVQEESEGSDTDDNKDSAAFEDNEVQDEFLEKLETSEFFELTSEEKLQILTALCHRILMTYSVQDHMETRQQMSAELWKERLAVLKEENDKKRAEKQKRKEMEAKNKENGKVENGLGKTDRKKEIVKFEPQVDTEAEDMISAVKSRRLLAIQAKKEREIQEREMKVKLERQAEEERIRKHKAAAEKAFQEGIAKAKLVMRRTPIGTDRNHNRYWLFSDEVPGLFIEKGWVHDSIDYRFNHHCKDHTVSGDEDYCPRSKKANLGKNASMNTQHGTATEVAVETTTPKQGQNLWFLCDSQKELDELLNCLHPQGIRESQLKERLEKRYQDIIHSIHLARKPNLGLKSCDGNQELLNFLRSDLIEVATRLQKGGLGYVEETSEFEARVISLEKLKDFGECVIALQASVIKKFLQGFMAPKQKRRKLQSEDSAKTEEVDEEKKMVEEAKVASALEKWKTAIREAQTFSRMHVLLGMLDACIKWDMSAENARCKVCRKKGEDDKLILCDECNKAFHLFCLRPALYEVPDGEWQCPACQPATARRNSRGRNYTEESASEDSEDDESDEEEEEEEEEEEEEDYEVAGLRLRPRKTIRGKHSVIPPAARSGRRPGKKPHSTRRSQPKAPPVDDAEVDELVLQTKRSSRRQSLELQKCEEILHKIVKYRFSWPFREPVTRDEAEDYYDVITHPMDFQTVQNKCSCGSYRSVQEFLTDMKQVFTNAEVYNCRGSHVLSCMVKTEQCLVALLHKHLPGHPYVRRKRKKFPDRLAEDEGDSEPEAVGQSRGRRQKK
Chain of UniProt Q8N999 (Q8N999 whole entry, looked up): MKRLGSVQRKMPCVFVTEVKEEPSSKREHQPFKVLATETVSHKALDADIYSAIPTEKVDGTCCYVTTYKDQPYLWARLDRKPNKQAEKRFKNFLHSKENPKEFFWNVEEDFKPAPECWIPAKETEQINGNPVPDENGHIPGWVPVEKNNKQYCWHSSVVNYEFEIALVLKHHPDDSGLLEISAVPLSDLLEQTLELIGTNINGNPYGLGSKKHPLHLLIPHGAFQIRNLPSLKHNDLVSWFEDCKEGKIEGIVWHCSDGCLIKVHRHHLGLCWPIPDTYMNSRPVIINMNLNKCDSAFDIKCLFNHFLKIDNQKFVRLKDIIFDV
Chain of UniProt Q6QNY0 (Q6QNY0 whole entry): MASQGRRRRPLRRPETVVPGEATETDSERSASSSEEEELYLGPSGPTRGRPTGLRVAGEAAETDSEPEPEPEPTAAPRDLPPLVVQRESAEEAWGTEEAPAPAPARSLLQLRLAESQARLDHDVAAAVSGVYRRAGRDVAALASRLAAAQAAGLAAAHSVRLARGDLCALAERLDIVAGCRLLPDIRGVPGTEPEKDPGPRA
Chain of UniProt O15446 (O15446 whole entry, looked up): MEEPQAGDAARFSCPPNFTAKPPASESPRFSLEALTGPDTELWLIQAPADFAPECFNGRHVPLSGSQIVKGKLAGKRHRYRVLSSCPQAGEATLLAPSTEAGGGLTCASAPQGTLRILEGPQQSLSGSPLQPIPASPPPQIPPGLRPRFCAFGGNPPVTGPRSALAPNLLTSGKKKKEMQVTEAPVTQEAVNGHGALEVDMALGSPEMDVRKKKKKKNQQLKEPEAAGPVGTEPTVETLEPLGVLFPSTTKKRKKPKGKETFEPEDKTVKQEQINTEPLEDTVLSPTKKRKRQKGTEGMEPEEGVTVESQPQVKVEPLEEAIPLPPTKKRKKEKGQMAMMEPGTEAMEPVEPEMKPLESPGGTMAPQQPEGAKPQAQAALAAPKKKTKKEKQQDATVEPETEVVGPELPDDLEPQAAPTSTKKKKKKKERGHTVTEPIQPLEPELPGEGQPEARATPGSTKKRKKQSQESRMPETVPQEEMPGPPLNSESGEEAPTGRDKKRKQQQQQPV
Chain of UniProt P55212 (P55212 whole entry, looked up): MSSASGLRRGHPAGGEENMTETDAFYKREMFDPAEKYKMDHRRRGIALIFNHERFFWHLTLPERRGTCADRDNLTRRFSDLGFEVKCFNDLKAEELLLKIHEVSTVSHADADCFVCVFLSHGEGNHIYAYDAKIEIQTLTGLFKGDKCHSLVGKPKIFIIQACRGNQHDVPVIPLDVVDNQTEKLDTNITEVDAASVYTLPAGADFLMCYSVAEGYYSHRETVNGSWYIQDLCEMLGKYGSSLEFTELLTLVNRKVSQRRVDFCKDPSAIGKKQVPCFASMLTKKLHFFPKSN
Chain of UniProt P0C7P0 (P0C7P0 whole entry, looked up): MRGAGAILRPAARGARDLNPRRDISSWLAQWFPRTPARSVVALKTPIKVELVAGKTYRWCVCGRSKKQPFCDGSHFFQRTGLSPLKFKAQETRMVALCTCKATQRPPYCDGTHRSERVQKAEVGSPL
Chain of UniProt Q9UL15 (Q9UL15 whole entry, looked up): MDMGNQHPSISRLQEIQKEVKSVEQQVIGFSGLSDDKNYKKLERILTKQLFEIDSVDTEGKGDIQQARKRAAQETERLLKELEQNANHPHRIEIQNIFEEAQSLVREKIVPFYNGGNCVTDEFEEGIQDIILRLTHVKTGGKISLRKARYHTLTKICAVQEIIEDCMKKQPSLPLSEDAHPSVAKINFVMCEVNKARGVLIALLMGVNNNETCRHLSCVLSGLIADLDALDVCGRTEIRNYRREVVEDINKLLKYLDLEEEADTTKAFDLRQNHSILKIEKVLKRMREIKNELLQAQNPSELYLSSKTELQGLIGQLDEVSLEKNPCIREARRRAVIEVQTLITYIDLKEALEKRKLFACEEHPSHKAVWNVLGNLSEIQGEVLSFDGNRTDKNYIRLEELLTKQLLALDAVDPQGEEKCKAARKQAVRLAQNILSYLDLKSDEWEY
Chain of UniProt Q10588 (Q10588 whole entry, looked up): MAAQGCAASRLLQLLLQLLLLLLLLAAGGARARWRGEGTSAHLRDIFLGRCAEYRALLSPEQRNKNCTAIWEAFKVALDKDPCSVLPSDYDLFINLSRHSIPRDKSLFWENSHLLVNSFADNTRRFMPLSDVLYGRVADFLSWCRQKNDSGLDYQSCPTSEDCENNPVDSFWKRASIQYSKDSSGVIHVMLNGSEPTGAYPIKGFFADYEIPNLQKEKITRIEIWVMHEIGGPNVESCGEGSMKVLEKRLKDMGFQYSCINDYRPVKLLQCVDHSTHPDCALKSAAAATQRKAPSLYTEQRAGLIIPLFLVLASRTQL

Target | probe-labelled cysteine peptide fold change (10 µM) | probe-labelled cysteine peptide fold change (50 µM)
BRMS1_Q9HCU9_136_NKYECELQGAK (UniProt Q9HCU9) | -0.259 | 0.135
BLOC1S3_Q6QNY0_168_GDLCALAER (UniProt Q6QNY0) | -0.161 | -1.28
CDC45_O75419_31_VLLFVASDVDALCACK (UniProt O75419) | 0.0846 | -0.132
AXL_P30530_588_SELEDFLSEAVCMK (UniProt P30530) | -0.0637 | -0.202
CANX_P27824_194_TPYTIMFGPDKCGEDYK (UniProt P27824) | -0.61 | -1.04
CD3EAP_O15446_14_FSCPPNFTAKPPASESPR (UniProt O15446) | -0.00148 | 0.231
BCL2L12_Q9HB09_266_ACPGPPPPSPEPLAR (UniProt Q9HB09) | -1.45 | -1.65
BCCIP_Q9P287_141_GTQCVEQIQELVLR (UniProt Q9P287) | -0.00329 | 0.117
BAZ1B_Q9UIG0_338_LWCHVHLK (UniProt Q9UIG0) | 0.0758 | -0.443
CFL1_P23528_139_KLTGIKHELQANCYEEVK (UniProt P23528) | -0.294 | -1.18
CFL1_P23528_139_LTGIKHELQANCYEEVK (UniProt P23528) | -0.346 | -1.35
CASP6_P55212_68_GTCADRDNLTR (UniProt P55212) | -0.352 | -0.342
CASP8_Q14790_313_IYQLMDHSNMDCFICCILSHGDK (UniProt Q14790) | -0.0657 | 0.147
CLTC_Q00610_666_AVVHTHLLNPEWLVNYFGSLSVEDSLECLR (UniProt Q00610) | 0.146 | 0.368
CCAR1_Q8IX12_937_DLLMAFVYFDQSHCGYLLEK (UniProt Q8IX12) | 0.383 | 1.17
CKAP5_Q14008_1203_TQMSSCVAK (UniProt Q14008) | 0.056 | –
CCDC82_Q8N4S0_422+424_NPENCSCQACGLHR (UniProt Q8N4S0) | 0.307 | 0.0324
C3orf38_Q5JPI3_259_CPFVENTWK (UniProt Q5JPI3) | -0.493 | -1.53
CISD3_P0C7P0_71_KQPFCDGSHFFQR (UniProt P0C7P0) | -0.114 | -0.265
C12orf29_Q8N999_13_KMPCVFVTEVK (UniProt Q8N999) | -0.0531 | -0.206

Target | probe-labelled cysteine peptide fold change (10 µM) | probe-labelled cysteine peptide fold change (50 µM)
BOD1L1_Q8NFC6_2694_NGEILAPPESLCGGKPSGIAELQR (UniProt Q8NFC6) | -0.213 | -0.323
BUB1_O43683_698_LSQPAAGGVLTCEAELGVEACR (UniProt O43683) | 0.0033 | 0.164
C19orf47_Q8N9M1_123_AATESVPCSPSPLAGEIR (UniProt Q8N9M1) | 0.172 | 0.184
CCS_O14618_246_QICSCDGLTIWEER (UniProt O14618) | -0.283 | -3.77
CC2D1B_Q5T0F9_809_LERLENECEIR (UniProt Q5T0F9) | -0.174 | 0.209
CBFA2T3_O75081_423_CQEADREELNHWAR (UniProt O75081) | 0.042 | 0.157
BST1_Q10588_144_VADFLSWCR (UniProt Q10588) | 0.0714 | 0.155
CHSY1_Q86X52_48_ASPEGCR (UniProt Q86X52) | -0.0127 | -0.326
CCAR1_Q8IX12_465_SCALAEDPQELR (UniProt Q8IX12) | 0.00763 | 0.151
C16orf62_Q7Z3J2_321_LTCMIR (UniProt Q7Z3J2) | -0.345 | -1.06
CEPT1_Q9Y6K0_11_CGDSHPESPVGFGHMSTTGCVLNK (UniProt Q9Y6K0) | -2.02 | -2.15
CCNB2_O95067_131_IEDIDNEDWENPQLCSDYVK (UniProt O95067) | 0.148 | -0.00128
CHTF18_Q8WVB6_825_LEPNVEELCRFPELPAR (UniProt Q8WVB6) | -0.161 | -0.0269
CAPZB_P47756_206_QMEKDETVSDCSPHIANIGR (UniProt P47756) | -0.603 | -1.32
BAG5_Q9UL15_218_HLSCVLSGLIADLDALDVCGR (UniProt Q9UL15) | -0.17 | -0.186
CASP7_P55210_70_CIIINNK (UniProt P55210) | 0.0573 | -0.241
CLTC_Q00610_824_LPVVIGGLLDVDCSEDVIK (UniProt Q00610) | -0.0301 | 0.396
CD33_P20138_325_LHGPTETSSCSGAAPTVEMDEELHYASLNFHGMNPSK (UniProt P20138) | -0.258 | -0.378
CHAMP1_Q96JM3_41_GTDYENVQIHMGTIHPEFCDEMDAGGLGK (UniProt Q96JM3) | 0.114 | -0.0442

From the supplement of paper PMC12067093, “Discovery and optimisation of a covalent ligand for TRIM25 and its application to targeted protein ubiquitination” (Chemical Science, 2025)
